{"source": "ChEMBL document CHEMBL4888484", "about": "“Replenishing the malaria drug discovery pipeline: Screening and hit evaluation of the MMV Hit Generation Library 1 (HGL1) against asexual blood stage Plasmodium falciparum ,using a nano luciferase reporter read-out” (2022)", "note": "Hit rate of the full screen: of about 150,000 compounds, about 540 (0.36%) showed an effect of 50% or more. The list shows a part of the results."}
{"test_system": "Plasmodium falciparum", "test": "Primary screen in NF54 nanoGlo assay, in single point, at 2uM, 72h; a lower Z score goes with more inhibition", "assay_type": "functional, Erythrocyte", "details": "timepoint 72 hour", "units": {"% Inhibition": "%"}}
{"smiles": "Nc1c2c(-c3ccc(Cl)cc3)nc(NC3CC3)nc2nn1-c1ccc(Cl)cc1", "% Inhibition": -5, "Z score": 0.5}
{"smiles": "O=C1CC[C@H](C(=O)NCC2(C3CC3)CC2)N1", "% Inhibition": -12, "Z score": 1.29}
{"smiles": "O=C(c1cnc(N2CCC3CCCCC32)c(Cl)c1)N1CCOCC1", "note": "(stereo not drawn)", "% Inhibition": 2, "Z score": -0.23}
{"smiles": "CCOC(=O)N1CCC(NC(N)=NCCc2ccccc2C)CC1", "% Inhibition": -8, "Z score": 0.68}
{"smiles": "CC(C)n1nnnc1-c1ccccc1NC(=O)N1CCc2ccccc2[C@@H]1C", "% Inhibition": -1, "Z score": 0.1}
{"smiles": "Cc1cc(Cl)c(NC(=O)N2CCC[C@H](CO)C2)c2cccnc12", "% Inhibition": -3, "Z score": 0.49}
{"smiles": "C[C@H](NC(=O)CN1CCCN(C)CC1)C1=CCCCC1", "% Inhibition": -11, "Z score": 1.69}
{"smiles": "NC(=O)[C@@H]1CCCN1C(=O)c1cnn2c1CCCC2", "% Inhibition": -11, "Z score": 1.27}
{"smiles": "CC1(C)CN(C(=O)NC[C@H]2CCOC2)CCN1Cc1ccccc1", "% Inhibition": -4, "Z score": 0.72}
{"smiles": "C[C@@H](c1cccc(-c2nccn2Cc2cccc(C(=O)O)c2)c1)N(C)C", "% Inhibition": -6, "Z score": 0.75}
{"smiles": "COc1ccc(-c2cnnc(NCCCN3CCOCC3)n2)c(OC)c1", "% Inhibition": -4, "Z score": 0.51}
{"smiles": "COc1ccccc1-c1cnn2c(-c3ccncc3)ccnc12", "% Inhibition": -4, "Z score": 0.59}
{"smiles": "COCc1c(C(=O)N(C)CC(C)C)cnn1-c1nccc(-c2ccco2)n1", "% Inhibition": -2, "Z score": 0.33}
{"smiles": "CC1CN(C(=O)c2cc(S(=O)(=O)N3CCCC3)c[nH]2)CC(C)O1", "note": "(stereo not drawn)", "% Inhibition": 1, "Z score": -0.14}
{"smiles": "Cc1nc(C)c(CC(=O)N[C@@H]2CCC[C@H]2OCc2ccccc2)s1", "% Inhibition": -4, "Z score": 0.64}
{"smiles": "CS(=O)(=O)N1CC(N2CC(F)(F)C[C@H]2C(=O)N2CCN(c3ccccc3F)CC2)C1", "% Inhibition": -13, "Z score": 1.51}
{"smiles": "Cc1cc(C(=O)NC[C@](C)(O)c2ccc(-c3ccccc3)cc2)no1", "% Inhibition": -14, "Z score": 2.34}
{"smiles": "O=C(NC[C@H]1CCCN(c2nnnn2-c2ccccc2)C1)c1cc(C(F)F)[nH]n1", "% Inhibition": -6, "Z score": 1.19}
{"smiles": "CCOc1ccc(S(=O)(=O)[C@H]2CS(=O)(=O)C[C@@H]2N2CCCC2)cc1", "% Inhibition": 3, "Z score": -0.41}
{"smiles": "O=C(NCC(O)C1CCOCC1)C1CC1C1CC1", "note": "(stereo not drawn)", "% Inhibition": 4, "Z score": -0.6}
{"smiles": "Cc1cc(CNc2nc3c(c(=O)[nH]2)CCNC3)c(C(F)(F)F)o1", "% Inhibition": -6, "Z score": 0.77}
{"smiles": "O=C(COc1ccc(Cl)cc1Br)NC(=O)CN1CCCC1=O", "% Inhibition": 9, "Z score": -1.71}
{"smiles": "FC1(F)CC[C@H](CNc2nccs2)C1", "% Inhibition": -5, "Z score": 0.99}
{"smiles": "C[C@@]1(C(=O)NC2CCCCC2)Cn2c(ccc2-c2ccccc2)C(=O)N1Cc1cccc(F)c1", "% Inhibition": -10, "Z score": 1.29}
{"smiles": "Cc1ccc(CN2CCN(Cc3nc(C(=O)Nc4ccc(F)cc4)co3)CC2)cc1", "% Inhibition": -15, "Z score": 2.37}
{"smiles": "CNC(=O)Cc1noc(-c2cnc(-c3ccc(F)c(F)c3)s2)n1", "% Inhibition": -6, "Z score": 1.04}
{"smiles": "Cc1ccc(C[C@H](NC(=O)Nc2ccn(C)n2)c2cccnc2)cc1", "% Inhibition": -8, "Z score": 0.75}
{"smiles": "Cc1ccc(-c2nc(C3CCCC3)n[nH]2)c(F)c1", "% Inhibition": -17, "Z score": 1.6}
{"smiles": "Cc1c(CNC[C@@H](O)c2ccc(C(F)(F)F)cc2)cnn1C", "% Inhibition": 3, "Z score": -0.46}
{"smiles": "CCn1cc(CN2CCC3(CC2)CN(CCC(C)C)C(=O)O3)c(C)n1", "% Inhibition": 17, "Z score": -2.35}
{"smiles": "Cc1cccc(NC(=O)N2CCC3(CC2)C[C@@H](N(C)Cc2ccccc2)CCO3)c1", "% Inhibition": -2, "Z score": 0.29}
{"smiles": "COc1ccc(C(=O)N[C@@H](C(=O)Nc2ccccc2C)c2ccc(Cl)cc2)cc1", "% Inhibition": 42, "Z score": -1.59}
{"smiles": "O=C(O)C1CCC2CCCCC2N1C(=O)Cc1ccsc1", "note": "(stereo not drawn)", "% Inhibition": 5, "Z score": -0.96}
{"smiles": "Cc1nccn1C[C@H](C)NCc1nncn1CCc1ccccc1", "% Inhibition": 4, "Z score": -0.52}
{"smiles": "Cc1ccc(-c2ncc(C(=O)N3CCC4(CCCC4)C3)c(O)n2)cc1", "% Inhibition": -8, "Z score": 0.89}
{"smiles": "O=C1CC2CCC(CN1)N2C(=O)c1ccc(-c2ccccc2F)o1", "note": "(stereo not drawn)", "% Inhibition": 33, "Z score": -3.33}
{"smiles": "O=C1C[C@@H](c2ccccc2)N(c2ncnc3cc(Cl)ccc23)CCN1", "% Inhibition": -5, "Z score": 0.98}
{"smiles": "CC[C@H](C)NC(=O)Nc1cccc(F)c1", "% Inhibition": -11, "Z score": 2.18}
{"smiles": "Cc1cc(C)c(CS(=O)(=O)CC(=O)N2CCO[C@@H](C)C2)c(C)c1", "% Inhibition": 0, "Z score": 0.03}
{"smiles": "O=C(Cn1ccnc1-c1ccnc(N2CCCC2)c1)NCc1ccccc1Cl", "% Inhibition": 7, "Z score": -0.83}
{"smiles": "O=C(c1ccnc(/C=C/C2CCCCC2)c1)N1CCOCC1", "% Inhibition": -21, "Z score": 2.03}
{"smiles": "Cc1n[nH]c(C)c1NC(=O)CN1CC(C)OC(C)C1", "note": "(stereo not drawn)", "% Inhibition": 31, "Z score": -4.12}
{"smiles": "Cc1ccc(NC(=O)c2cnn(C(C)C)c2N)s1", "% Inhibition": -5, "Z score": 0.64}
{"smiles": "Fc1cccc(F)c1CN1CCO[C@@H](Cn2ccnn2)C1", "% Inhibition": 14, "Z score": -1.6}
{"smiles": "Cc1cc(C)nc(Nc2nc(CC(=O)Nc3cccnc3)cs2)n1", "% Inhibition": -28, "Z score": 4.08}
{"smiles": "O=C(NC1CC1)[C@@H]1CN(Cc2cnc(-c3ccc(Cl)cc3)nc2)CCN1", "% Inhibition": 4, "Z score": -0.64}
{"smiles": "C[C@]1(O)CCN(C(=O)c2ccc3[nH]nnc3c2)C[C@@H]1O", "% Inhibition": 1, "Z score": -0.12}
{"smiles": "CCOc1ccccc1N(C)Cc1cc(C(N)=O)cs1", "% Inhibition": -5, "Z score": 0.48}
{"smiles": "C[C@@H]1CN(CC(=O)N(Cc2cocn2)Cc2cocn2)C[C@H](C)O1", "% Inhibition": -1, "Z score": 0.2}
{"smiles": "CC[C@H](C)N(CC(=O)N(CCc1ccccc1)Cc1ccco1)C(=O)CC(C)(C)C", "% Inhibition": 10, "Z score": -1.06}
{"smiles": "C[C@H](NC(=O)c1cnccn1)c1nc(-c2ccncc2)cs1", "% Inhibition": -17, "Z score": 2.63}
{"smiles": "Cc1ccc(CC(=O)N2CCCn3nncc3C2)cc1Cl", "% Inhibition": -1, "Z score": 0.19}
{"smiles": "Cc1cc(CN(c2ccccc2Br)S(=O)(=O)N(C)C)nn1C", "% Inhibition": 3, "Z score": -0.27}
{"smiles": "CCN(CC)C(=O)Cn1cc(C(=O)N[C@H](C)c2cccc(OC)c2)nn1", "% Inhibition": 12, "Z score": -1.56}
{"smiles": "O=C1C[C@@H]2CCN(C(=O)C3CCOCC3)C[C@@H]2CCOc2ccc(C(F)(F)F)cc2N1", "% Inhibition": -7, "Z score": 0.96}
{"smiles": "Cc1nn(C)c(OC[C@H]2CCCCO2)c1C(=O)NCc1nccc(C(F)F)n1", "% Inhibition": 0, "Z score": 0.05}
{"smiles": "O=C1N(Cc2ccccc2F)CCC[C@@]1(O)CN1CCCOCC1", "% Inhibition": 5, "Z score": -0.7}
{"smiles": "COC(=O)c1ccc(NC(=O)CCc2csc(C)n2)cc1", "% Inhibition": -14, "Z score": 1.76}
{"smiles": "Fc1ccc(CNc2ccc3c(c2)OCO3)cc1Br", "% Inhibition": -3, "Z score": 0.48}
{"smiles": "COc1ccc(CC(=O)NC[C@H]2CC(Cc3ccc(F)cc3)=NO2)cc1", "% Inhibition": 3, "Z score": -0.36}
{"smiles": "CC(C)NC(=O)Cc1cc(-c2ccc3c(c2)C[C@H](C)O3)on1", "% Inhibition": -8, "Z score": 1.49}
{"smiles": "CCn1ccc(C(=O)NC(Cc2ccncc2)[C@H]2C[C@H](O)C2)cc1=O", "note": "(stereo partly drawn)", "% Inhibition": -12, "Z score": 1.26}
{"smiles": "Oc1ccccc1-c1cc(-c2ccc(F)cc2)cc(-c2ccccc2)n1", "% Inhibition": -5, "Z score": 0.54}
{"smiles": "Cc1cccc(CNC(=O)[C@]2(C)Cn3nc(-c4cccs4)cc3C(=O)N2c2ccc(C)cc2Cl)c1", "% Inhibition": -10, "Z score": 1.56}
{"smiles": "CN(C)c1ccc(CN2CCOC[C@H]2c2nc(C(C)(C)C)co2)cc1", "% Inhibition": 16, "Z score": -1.81}
{"smiles": "CC(C)C(NC(=O)c1ccco1)C(=O)NCC1CCCC1O", "note": "(stereo not drawn)", "% Inhibition": 5, "Z score": -0.73}
{"smiles": "Cc1cccc2c1N(C(=O)[C@@H]1OCC[C@@H]1C(C)C)CC2", "% Inhibition": -1, "Z score": 0.12}
{"smiles": "CCOC(=O)C(c1cc(Cl)cc(Cl)c1)N(CC)C(=O)C(C)S(=O)(=O)C(C)C", "note": "(stereo not drawn)", "% Inhibition": -1, "Z score": 0.07}
{"smiles": "CCCn1cc(CN(C)C2(COC)CC2)c(C)n1", "% Inhibition": 12, "Z score": -1.68}
{"smiles": "CO[C@H]1CCC[C@@H]1Nc1nccn2nc(C)cc12", "% Inhibition": 9, "Z score": -1.13}
{"smiles": "Cc1n[nH]c2c1CN(C(=O)[C@H](C)n1ccnc1)CC2", "% Inhibition": -23, "Z score": 2.45}
{"smiles": "CN1CC2(CCN(C(=O)NC3CCCC3)CC2)C[C@@H](c2ccccc2)C1=O", "% Inhibition": 16, "Z score": -2.04}
{"smiles": "O=C(NCC1(c2ccccc2)CC1)c1ccc2c(c1)OCO2", "% Inhibition": -6, "Z score": 0.79}
{"smiles": "c1ccc2c(c1)CCC[C@H]2c1noc(-c2nccc3ccccc23)n1", "% Inhibition": -2, "Z score": 0.28}
{"smiles": "O=C1C[C@H](NS(=O)(=O)c2c(F)cccc2F)CN1C1CC1", "% Inhibition": -13, "Z score": 2.05}
{"smiles": "Cc1ccc(Cl)cc1-n1ncc2c(N3CCCCCC3)ncnc21", "% Inhibition": 4, "Z score": -0.53}
{"smiles": "C[C@@H](C(=O)N1CCc2ccccc21)N1C(=O)CCC1=O", "% Inhibition": 9, "Z score": -1.01}
{"smiles": "COc1ccc([C@@H]2CC(=O)Nc3ccc4nn(-c5ccccc5)nc4c32)cc1O", "% Inhibition": -5, "Z score": 0.61}
{"smiles": "Cc1cc(N)n(CC(=O)N(C)Cc2c[nH]nc2C)n1", "% Inhibition": -18, "Z score": 3.38}
{"smiles": "Cc1nc(-c2cc3ccccc3nc2N2CCN(C(=O)Cc3ccccc3)CC2)no1", "% Inhibition": -10, "Z score": 1.81}
{"smiles": "CC(C)(C)c1noc(CN2C[C@@H](O)[C@@H](O)C2)n1", "% Inhibition": -7, "Z score": 0.91}
{"smiles": "O=c1ccccn1Cc1cc(Cl)c2c(c1)OCO2", "% Inhibition": 1, "Z score": -0.22}
{"smiles": "Cc1ccc(NC(=O)Cn2ncn3c(C)c(C(=O)NCc4ccc(F)cc4)c(C)c3c2=O)cc1F", "% Inhibition": -6, "Z score": 0.91}
{"smiles": "Cc1cn2ccc(C(=O)N[C@H]3CCS(=O)(=O)C4(CCC4)C3)cc2n1", "% Inhibition": -1, "Z score": 0.22}
